Assay results taken from the BET-seq Pho4 binding data (Le et al. 2018).
The other results are listed elsewhere or left out. The energies were worked out here from pooled read counts, against the library average; single values are noisy.

target: T1, Pho4 (S. cerevisiae) (UniProt P07270); experiment: relative binding free energy (BET-seq); higher = weaker binding; conditions: reference: library average
T1 sequence: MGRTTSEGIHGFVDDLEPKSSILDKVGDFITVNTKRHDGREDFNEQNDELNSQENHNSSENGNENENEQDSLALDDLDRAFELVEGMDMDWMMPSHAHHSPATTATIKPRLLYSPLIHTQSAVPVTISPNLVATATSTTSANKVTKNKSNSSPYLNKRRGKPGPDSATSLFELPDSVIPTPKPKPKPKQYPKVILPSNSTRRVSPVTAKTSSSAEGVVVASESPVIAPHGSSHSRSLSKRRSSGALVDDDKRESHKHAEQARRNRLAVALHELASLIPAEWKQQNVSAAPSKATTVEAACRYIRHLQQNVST

| Sequence | relative binding free energy [kcal/mol] |
| --- | --- |
| CATATCACGTGGGGGA | 0 |
| ATAGGCACGTGAGATA | 0 |
| TGAGGCACGTGTGGCG | 0.05 |
| TTAAACACGTGTTTTA | -0.1 |
| GTTGGCACGTGATAGG | 0 |
| ATAATCACGTGATATT | 0.21 |
| TTGGGCACGTGAGTTA | 0.14 |
| CTGGACACGTGAGGGC | 0.24 |
| TGTAACACGTGCGGTT | -0.08 |
| ATCGTCACGTGGGCGG | 0.02 |
| TAAATCACGTGTCTTT | 0.21 |
| TTTAGCACGTGGGTCG | -0.13 |
| TCGGGCACGTGGGGCT | -0.29 |
| AGCAGCACGTGTGGTT | -0.14 |
| AGATTCACGTGTGGGT | 0.38 |
| TTAATCACGTGTGGTA | 0.12 |
| ATTTGCACGTGAGACT | 0.11 |
| AGTTTCACGTGTGCTT | 0.37 |
| CGGTGCACGTGGGAAG | -0.03 |
| GAATTCACGTGTTTAT | 0.33 |
| GAAGGCACGTGGGAGA | -0.09 |
| TAGCGCACGTGGTGGG | -0.14 |
| GATGCCACGTGTGTAT | 0.09 |
| GTGAGCACGTGTGGCG | -0.07 |
| ATCTGCACGTGAATGG | 0.33 |

| Sequence | relative binding free energy [kcal/mol] |
| --- | --- |
| TGTTTCACGTGAGTAG | 0.49 |
| GGTGACACGTGTTGAT | 0.1 |
| TGGCTCACGTGTGAGT | 0.3 |
| AGGGTCACGTGGGCCT | -0.01 |
| TGACGCACGTGGACGT | 0 |
| TATAACACGTGGGTGC | -0.06 |
| TTGTGCACGTGGCAAT | -0.16 |
| CGTGTCACGTGAGGGG | 0.21 |
| TTTTTCACGTGGATTA | 0.31 |
| GAGGTCACGTGTTCGT | 0.18 |
| TGAGTCACGTGCAGGT | 0.11 |
| GATTTCACGTGGGGGG | 0.24 |
| CGGTTCACGTGGTGTT | 0.22 |
| GGTTTCACGTGGTTGA | 0.28 |
| CGGTGCACGTGCGAGG | -0.09 |
| GAGCGCACGTGAGGGG | 0.01 |
| TAGTACACGTGGATTG | -0.01 |
| TGCATCACGTGGAGTT | 0.23 |
| TTCCTCACGTGGTGGT | 0.12 |
| AAAGTCACGTGTGCGA | 0.2 |
| ACGAGCACGTGGGTGT | -0.24 |
| TTATGCACGTGTTAGG | -0.11 |
| CTGTCCACGTGTTTTT | 0.2 |
| TTTGGCACGTGAATAT | 0.23 |
| GGTTGCACGTGCCGTA | 0.08 |

| Sequence | relative binding free energy [kcal/mol] |
| --- | --- |
| AGACGCACGTGATGTT | 0.16 |
| CTTTGCACGTGATAGG | -0.06 |
| GGCTTCACGTGACGGG | 0.42 |
| TTCGGCACGTGTTGAT | 0.07 |
| TGTGGCACGTGACCGT | -0.15 |
| TTTGGCACGTGGGCAC | -0.15 |
| TTAGACACGTGGTTCG | 0 |
| TTGTTCACGTGTGCTA | 0.29 |
| CTAGGCACGTGAGTGT | 0.11 |
| TGTTACACGTGGTGAC | 0.11 |
| TCGGTCACGTGATGAT | 0.31 |
| AGGGTCACGTGTTTTG | 0.05 |
| AATAGCACGTGTTGCG | -0.16 |
| GGTGTCACGTGGGGGC | 0.03 |
| TAGTACACGTGTAAGG | 0.17 |
| CTTTGCACGTGGAGAG | -0.05 |
| GTATACACGTGTACGG | 0.15 |
| TTTGTCACGTGTATGT | 0.04 |
| ACCGTCACGTGGGGGA | 0.07 |
| GTAGTCACGTGATGGC | 0.18 |
| GGACTCACGTGTGAGG | 0.16 |
| GATTACACGTGTTAAT | 0.17 |
| TACTGCACGTGGTGGG | -0.04 |
| TTGTTCACGTGTAACT | 0.35 |
| CACGTCACGTGGGGGA | -0.05 |

| Sequence | relative binding free energy [kcal/mol] |
| --- | --- |
| GTGTGCACGTGATAGT | 0.24 |
| TGGAGCACGTGTGTAA | -0.01 |
| GGGGCCACGTGTTGCG | -0.06 |
| CGGGCCACGTGGGTAA | -0.17 |
| GAAATCACGTGTTATT | 0.17 |
| TAGTCCACGTGTATTT | 0.2 |
| ATTTACACGTGTAGGG | 0.24 |
| TAACTCACGTGTTAGG | 0.21 |
| GGTGCCACGTGAGTGG | 0.15 |
| TTTGTCACGTGTTCTT | 0.11 |
| CGAGTCACGTGGGGGC | -0.05 |
| GAGATCACGTGTTGGA | 0.25 |
| GATGACACGTGAATGT | 0.27 |
| TTATACACGTGCGGGT | 0.01 |
| TGAATCACGTGAGGTC | 0.35 |
| TAGGTCACGTGAGTTC | 0.25 |
| CTAGGCACGTGCTGTG | -0.23 |
| GCTTACACGTGTTTTG | 0.18 |
| GTGGACACGTGACGGG | 0.2 |
| GTTTCCACGTGGGTTG | -0.01 |
| GTTCGCACGTGTAGTT | 0.12 |
| ACGTGCACGTGGAAGG | 0 |
| GGGTCCACGTGGGGAT | -0.21 |
| GGTTTCACGTGAGGTA | 0.39 |
| TATTTCACGTGCGATT | 0.34 |

| Sequence | relative binding free energy [kcal/mol] |
| --- | --- |
| TTTATCACGTGTAAGT | 0.22 |
| TTATACACGTGATGTG | 0.08 |
| TATCGCACGTGGGGTG | -0.1 |
| CAGGGCACGTGGGTTG | -0.23 |
| TAAGTCACGTGAGCTG | 0.21 |
| ACGGTCACGTGGGGAA | -0.07 |
| GTAGTCACGTGCGGGA | -0.01 |
| CTTTACACGTGGTGTT | -0.02 |
| ATGCGCACGTGTGAGA | -0.03 |
| GGGGTCACGTGGACGT | 0.18 |
| TGGGTCACGTGTCTAT | 0 |
| TTTGGCACGTGTTATT | -0.11 |
| AGTTGCACGTGATTAA | 0.15 |
| TGTAGCACGTGAGTCG | 0.12 |
| TTGTGCACGTGCGGCT | -0.05 |
| TTCGACACGTGGGCTG | -0.15 |
| CTCTACACGTGTTGGT | 0.15 |
| GGGCGCACGTGGCGGT | -0.12 |
| TCTAGCACGTGTATGG | -0.07 |
| GTGGTCACGTGCGTGG | 0.13 |
| TTGATCACGTGATATG | 0.4 |
| AGGGGCACGTGATACG | -0.09 |
| GTTGACACGTGAGCTT | 0.19 |
| GGTGCCACGTGCGTAG | -0.01 |
| TTTATCACGTGGAGTC | 0.2 |

| Sequence | relative binding free energy [kcal/mol] |
| --- | --- |
| GTCTTCACGTGGGGTG | 0.21 |
| TTAGACACGTGTGCAG | -0.02 |
| CTGGGCACGTGGTGGG | -0.12 |
| AAGTTCACGTGATAGT | 0.43 |
| CGTATCACGTGGGGAG | -0.13 |
| GTTGACACGTGTGCGT | 0.13 |
| TGTTACACGTGTGGTA | 0.08 |
| ATAATCACGTGATGTG | 0.22 |
| AGTTGCACGTGGAACT | 0.12 |
| GTGATCACGTGTGACG | 0.4 |
| GCGAGCACGTGGTGGA | -0.07 |
| TTAACCACGTGTTGTA | 0.02 |
| AATGGCACGTGGAATG | 0.09 |
| AGAGTCACGTGAGATT | 0.44 |
| TTTGTCACGTGTTAAG | 0.17 |
| ATGGTCACGTGATAAA | 0.24 |
| CTTCTCACGTGGTGGT | 0.17 |
| TTATACACGTGTTTAA | -0.1 |
| TAGGTCACGTGTACGG | 0 |
| ATGTTCACGTGTGTGT | 0.31 |
| ATAAACACGTGTCGTG | 0.06 |
